Data: publication PMC9405727, “A Setmelanotide-like Effect at MC4R Is Achieved by MC4R Dimer Separation” (Biomolecules, 2022)

Target: T1, MC4R-H158R, P32245
T1 chain: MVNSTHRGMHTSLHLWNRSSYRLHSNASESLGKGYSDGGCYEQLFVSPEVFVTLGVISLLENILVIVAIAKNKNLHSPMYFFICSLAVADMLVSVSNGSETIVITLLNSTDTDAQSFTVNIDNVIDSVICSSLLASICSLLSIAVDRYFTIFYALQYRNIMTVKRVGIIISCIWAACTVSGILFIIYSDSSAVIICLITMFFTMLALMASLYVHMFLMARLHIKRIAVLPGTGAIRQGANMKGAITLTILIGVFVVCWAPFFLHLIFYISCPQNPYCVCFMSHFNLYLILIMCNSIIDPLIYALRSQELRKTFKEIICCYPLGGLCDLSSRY
Experiment: FRET or BRET; NanoBRET in living HEK293 cells co-transfected with a NanoLuc fusion (donor; written as binder) and a HaloTag fusion (acceptor, ligand 618; written as target), NL/HT DNA ratio 1:5; BRET ratio in mBU after subtraction of the no-acceptor control; delta BRET = chimera minus MC4R-WT homodimer
Conditions: remark: other sources report otherwise

B1: MC4R-H158R, P32245 1-332 (receptor)
chain: MVNSTHRGMHTSLHLWNRSSYRLHSNASESLGKGYSDGGCYEQLFVSPEVFVTLGVISLLENILVIVAIAKNKNLHSPMYFFICSLAVADMLVSVSNGSETIVITLLNSTDTDAQSFTVNIDNVIDSVICSSLLASICSLLSIAVDRYFTIFYALQYRNIMTVKRVGIIISCIWAACTVSGILFIIYSDSSAVIICLITMFFTMLALMASLYVHMFLMARLHIKRIAVLPGTGAIRQGANMKGAITLTILIGVFVVCWAPFFLHLIFYISCPQNPYCVCFMSHFNLYLILIMCNSIIDPLIYALRSQELRKTFKEIICCYPLGGLCDLSSRY
**Q.** With B1 as the binder, how does the Relative Dimerization Compared to WT (delta BRET) read?
**A.** -28.9
